The chains are these.
B1: hRGS8 (human RGS8 with a HA epitope tag) (protein, UniProt P57771 1-180)
chain: MAALLMPRRNKGMRTRLGCLSHKSDSCSDFTAILPDKPNRALKRLSTEEATRWADSFDVLLSHKYGVAAFRAFLKTEFSEENLEFWLACEEFKKTRSTAKLVSKAHRIFEEFVDVQAPREVNIDFQTREATRKNLQEPSLTCFDQAQGKVHSLMEKDSYPRFLRSKMYLDLLSQSQRRLS
B2: HA-hRGS2 (human RGS2, 3X HA-tagged, N-terminus) (protein, UniProt P41220 1-211)
chain: MQSAMFLAVQHDCRPMDKSAGSGHKSEEKREKMKRTLLKDWKTRLSYFLQNSSTPGKPKTGKKSKQQAFIKPSPEEAQLWSEAFDELLASKYGLAAFRAFLKSEFCEENIEFWLACEDFKKTKSPQKLSSKARKIYTDFIEKEAPKEINIDFQTKTLIAQNIQEATSGCFTTAQKRVYSLMENNSYPRFLESEFYQDLCKKPQITTEPHAT
B3: HA-hRGS1 (human RGS1, 3X HA-tagged, N-terminus) (protein, UniProt Q08116 1-209)
chain: MRAAAISTPKLDKMPGMFFSANPKELKGTTHSLLDDKMQKRRPKTFGMDMKAYLRSMIPHLESGMKSSKSKDVLSAAEVMQWSQSLEKLLANQTGQNVFGSFLKSEFSEENIEFWLACEDYKKTESDLLPCKAEEIYKAFVHSDAAKQINIDFRTRESTAKKIKAPTPTCFDEAQKVIYTLMEKDSYPRFLKSDIYLNLLNDLQANSLK
B4: HA-hRGS16 (human RGS16, 3X HA-tagged, N-terminus) (protein, UniProt O15492 1-202)
chain: MCRTLAAFPTTCLERAKEFKTRLGIFLHKSELGCDTGSTGKFEWGSKHSKENRNFSEDVLGWRESFDLLLSSKNGVAAFHAFLKTEFSEENLEFWLACEEFKKIRSATKLASRAHQIFEEFICSEAPKEVNIDHETHELTRMNLQTATATCFDAAQGKTRTLMEKDSYPRFLKSPAYRDLAAQASAASATLSSCSLDEPSHT
B5: FL-hRGS5 (human Regulator of G-Protein Signaling 5 with an N-terminal FLAG epitope tag) (protein, UniProt O15539 1-181)
chain: MCKGLAALPHSCLERAKEIKIKLGILLQKPDSVGDLVIPYNEKPEKPAKTQKTSLDEALQWRDSLDKLLQNNYGLASFKSFLKSEFSEENLEFWIACEDYKKIKSPAKMAEKAKQIYEEFIQTEAPKEVNIDHFTKDITMKNLVEPSLSSFDMAQKRIHALMEKDSLPRFVRSEFYQELIK
B6: hRGS5-FL (human Regulator of G-Protein Signaling 5 with a C-terminal FLAG epitope tag) (protein, UniProt O15539 1-181)
chain: MCKGLAALPHSCLERAKEIKIKLGILLQKPDSVGDLVIPYNEKPEKPAKTQKTSLDEALQWRDSLDKLLQNNYGLASFKSFLKSEFSEENLEFWIACEDYKKIKSPAKMAEKAKQIYEEFIQTEAPKEVNIDHFTKDITMKNLVEPSLSSFDMAQKRIHALMEKDSLPRFVRSEFYQELIK
B7: HA-hRGS5 (human RGS5, 3X HA-tagged, N-terminus) (protein, UniProt O15539 1-181)
chain: MCKGLAALPHSCLERAKEIKIKLGILLQKPDSVGDLVIPYNEKPEKPAKTQKTSLDEALQWRDSLDKLLQNNYGLASFKSFLKSEFSEENLEFWIACEDYKKIKSPAKMAEKAKQIYEEFIQTEAPKEVNIDHFTKDITMKNLVEPSLSSFDMAQKRIHALMEKDSLPRFVRSEFYQELIK

By UniProt entry, the sequences of proteins in these tests, tags left out. Residues count along the entry.
UniProt P56726, residues 33-793: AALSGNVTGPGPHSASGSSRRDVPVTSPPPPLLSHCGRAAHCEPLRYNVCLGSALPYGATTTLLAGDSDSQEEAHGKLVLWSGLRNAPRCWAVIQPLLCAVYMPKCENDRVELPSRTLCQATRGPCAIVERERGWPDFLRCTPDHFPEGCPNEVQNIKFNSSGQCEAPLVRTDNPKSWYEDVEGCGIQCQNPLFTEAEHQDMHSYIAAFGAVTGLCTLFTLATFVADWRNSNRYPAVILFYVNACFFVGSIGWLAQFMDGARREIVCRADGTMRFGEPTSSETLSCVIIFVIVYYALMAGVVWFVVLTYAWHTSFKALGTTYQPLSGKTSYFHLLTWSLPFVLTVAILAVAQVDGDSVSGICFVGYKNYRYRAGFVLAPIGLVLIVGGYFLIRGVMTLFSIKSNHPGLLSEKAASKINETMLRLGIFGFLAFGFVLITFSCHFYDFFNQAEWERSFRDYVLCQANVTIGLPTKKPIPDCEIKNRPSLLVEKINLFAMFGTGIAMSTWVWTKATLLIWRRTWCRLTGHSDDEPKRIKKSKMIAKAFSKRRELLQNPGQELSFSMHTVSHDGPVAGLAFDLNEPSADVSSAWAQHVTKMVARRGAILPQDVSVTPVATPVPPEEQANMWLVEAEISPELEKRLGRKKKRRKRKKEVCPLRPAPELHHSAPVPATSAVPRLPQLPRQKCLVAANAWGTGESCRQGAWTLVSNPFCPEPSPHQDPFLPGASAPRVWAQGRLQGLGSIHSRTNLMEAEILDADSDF
UniProt P49798: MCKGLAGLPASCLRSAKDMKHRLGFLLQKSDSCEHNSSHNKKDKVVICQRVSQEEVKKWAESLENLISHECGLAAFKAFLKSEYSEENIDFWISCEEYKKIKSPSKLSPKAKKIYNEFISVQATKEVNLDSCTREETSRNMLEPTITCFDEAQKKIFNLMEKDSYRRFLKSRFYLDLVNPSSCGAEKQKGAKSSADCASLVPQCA

No constants are given. Whether binding was seen depends on the method and setting. Binding seen in cells or lysates may run through a third protein. Some binding calls cover weakened binding; strength is not graded here. For some assays here: Sequences can lack the tags named with a protein.

The first experiment deals with smoothened (Smo) (mouse (endogenous in C3H10T1/2)) (UniProt P56726). Nature of the experiment: co-IP; 100 µg whole cell extract of transfected C3H10T1/2 cells (50 mM Tris/HCl pH 8.0, 120 mM NaCl, 0.5% NP-40, 1 mM EDTA); endogenous acetylated tubulin, Smo or β-tubulin immunoprecipitated overnight at 4°C with antibody and Protein A/G+ or G+ agarose; tagged RGS protein detected by α-FLAG or α-HA immunoblot.
For B1, the binding result is listed as “no binding”.

Turning to B2, the binding entry is “no binding”. On the same count and under the same terms, to B3 belongs “no binding”; to B4, “no binding”; to B5, “binds”. On the same count and under the same terms, to B6 belongs “binds”; to B7, “binds”.

Another experiment has the same target. The experiment is described as above. This is another data set of the same source.
With “HA-hRGS4 (human RGS4, 3X HA-tagged, N-terminus) (from UniProt P49798 1-205)”, the binding result was “no binding”.

(Values after publication PMC3630190.)
